# Test results taken from ChEMBL document CHEMBL1201862, “PubChem BioAssay data set” (2004).
#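 Tested at 5 concentrations; 48 h exposure; 96-well plates; endpoints linearly interpolated, else capped at highest concentration. GI50 is the concentration that inhibits growth by half.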 Active and inactive are the calls of the source. Rule as the data show it: active = GI50 up to about 1.1 µM and inactive = higher.
# Test system: NCI-H322M
# Test: NCI tumour cell line growth inhibition, 48 h
row,SMILES,GI50
1,CCc1c(O)c2c(c(O)c1C(C)=O)C(=O)c1c(cc(O)c(C(=O)O)c1C(=O)O)C2=O,inactive: > 100 µM
2,O=Cc1ccccc1B(O)O,inactive: 73.3 µM
3,O=C1c2ccccc2-c2ccc(N(Cc3ccc(Br)cc3)Cc3ccc(Br)cc3)cc21,inactive: > 100 µM
4,c1ccc(CN2CCC3(CC2)SSC2(CCN(Cc4ccccc4)CC2)SS3)cc1,inactive: > 100 µM
5,Oc1c(C(Nc2cccc3cccnc23)c2ccccc2)ccc2cccnc12 (configuration not stated),inactive: > 100 µM
6,Cc1ccn2c(=O)cc(-c3ccccc3)nc2c1,inactive: > 100 µM
7,C/C=C(/C)C(=O)O[C@H]1[C@H]2[C@@H]([C@@H](OC(C)=O)[C@H](C)C(=O)[C@@]34C[C@@H](C)C(=O)[C@]3(/C=C(\C)[C@H]1OC(C)=O)O4)C2(C)C,inactive: 5.86 µM
8,COc1cccc2c(Nc3ccc(S(=O)(=O)Nc4ncccn4)cc3)c3ccc([N+](=O)[O-])cc3nc12,inactive: > 100 µM
9,Cc1ccc(C(=O)/C=C2/Nc3ccccc3NC2=O)c(C)c1,inactive: 15 µM
10,O=c1[nH]c(=O)n(C2OC(CO)C(O)C2O)c2c1CCCC2 (configuration not stated),inactive: > 100 µM
11,N#CCCN(c1ccc(/C=N/c2cccc([N+](=O)[O-])c2)cc1)S(=O)(=O)c1ccccc1,inactive: > 100 µM
12,CC(C)(C)C(=O)Oc1ccc(/C=C/C(=O)c2ccc(OC(=O)C(C)(C)C)cc2)cc1,inactive: > 100 µM
13,COC(=O)[C@]1(C)C(OC)=CC(=O)C2C1[C@H]1CCC[C@@H]21 (some centres not stated),inactive: > 100 µM
14,O=C1C2=Cc3ccccc3OC2(O)Oc2ccc(O)cc21 (configuration not stated),inactive: > 100 µM
15,COC(=O)CCC(=O)CC(=O)C1=NS(=O)(=O)c2nc(S(N)(=O)=O)c(Cl)cc2N1,inactive: > 100 µM
16,CCOc1ccc2c(C)cc(=O)oc2c1,inactive: > 100 µM
17,COc1cc(/C=C2\N=C(c3ccccc3)N(C3Nc4cc5c(cc4S3)NC(N3C(=O)/C(=C/c4cc(OC)c(OC)c(OC)c4)N=C3c3ccccc3)S5)C2=O)cc(OC)c1OC (configuration not stated),inactive: > 100 µM
18,Cc1ccc(C(=O)N/N=C(\N=N\c2cccc([N+](=O)[O-])c2)c2ccc(N(CCC#N)CCC#N)cc2C)cc1,inactive: 39.6 µM
19,O=C1N=C2N=C(c3ccc(Cl)cc3)N(c3ccc(Cl)cc3)N2Sc2ccccc21,inactive: 57.1 µM
20,Cc1cccc(NC2=NC(=O)C(CC(=O)Nc3cccc(C)c3C)S2)c1 (configuration not stated),inactive: > 100 µM
21,CC1Cc2c(cc(N)nc2Br)NC1=O (configuration not stated),inactive: > 100 µM
22,C[C@@H](O)C(=O)N1[C@@H]2CC3CC[C@]2(CS1(=O)=O)C3(C)C,inactive: > 100 µM
23,CC(=O)OC12c3ccccc3C1CCCC21OCCCO1 (configuration not stated),inactive: > 100 µM

row,SMILES,GI50
1,COC(=O)[C@H](Cc1ccccc1)NC(=O)N(CCNC(=O)OC(C)(C)C)c1ccccc1,inactive: > 100 µM
2,C=C1OC(=O)[C@]2([C@@H](/C=C/C)C=CC(=O)[C@H]2O)[C@@H]1O,inactive: > 100 µM
3,COc1ccc(C(CC(=O)c2ccc(O)cc2)C(C(=O)c2ccc(O)cc2)C(c2ccc(OC)cc2)C2C(=O)NC(=S)NC2=O)cc1 (configuration not stated),inactive: 20.3 µM
4,COc1cc2cc(C(=O)N3CC(CCl)c4ccc(NO)cc43)[nH]c2c(OC)c1OC (configuration not stated),active: 0.28 µM
5,COCCOC(=O)C(C)=[N+]=[N-],inactive: > 100 µM
6,Cn1c2c(c3ccccc31)CCN=C2C1CCCOC1=O (configuration not stated),inactive: > 100 µM
7,O=C1CSC2(CC(/C=C/c3cccc([N+](=O)[O-])c3)=NN2c2cccc(S(=O)(=O)O)c2)N1c1nc2ccccc2s1 (configuration not stated),inactive: 39.1 µM
8,CC(Nc1ccc(S(=O)(=O)NC(=N)N)cc1)c1c2ccccc2nc2ccccc12 (configuration not stated),inactive: 58.3 µM
9,O=S(=O)(c1ccc(I)cc1)N(c1ccccc1)S(=O)(=O)C(F)(F)C(F)(F)C(F)(F)C(F)(F)F,inactive: 14.2 µM
10,Oc1cc(CN2COc3ccccc32)c(O)cc1CNC1CCCCC1,inactive: 44.1 µM
11,CN(C)CCSc1nccc(-c2ccc(-c3ccnc(SCCN(C)C)n3)s2)n1,inactive: 8.15 µM
12,Cc1cccc(Cl)c1NC(N)=S,inactive: > 100 µM
13,CCn1c(SCC(=O)N/N=C/c2ccccc2)nc2ccccc2c1=O,inactive: 45.9 µM
14,COC(=O)c1nn(C(=N)c2ccc(Cl)cc2)c2c1CCC2,inactive: > 100 µM
15,O=c1ccn(CC2(CO)CC(Cc3ccccc3)C2)c(=O)[nH]1 (configuration not stated),inactive: > 100 µM
16,COC(=O)[C@H](Cc1ccc(OC(C)(C)C)cc1)N[C@H](C)C(=O)N[C@@H](Cc1ccccc1)C(=O)OCc1ccccc1,inactive: > 100 µM
17,NC(=O)[N+](=CC(=S)Nc1ccccc1Cl)C(N)=O,inactive: > 100 µM
18,C[C@]12CC[C@H]3[C@@H](CC=C4C[C@@H](O)CC[C@@]43C)[C@@H]1C/C(=C\c1ccc([N+](=O)[O-])cc1)[C@@H]2O,inactive: 10.6 µM
19,COc1ccc2cc(CN3CCC(C4CCN(Cc5ccc6cc(OC)ccc6c5)CC4)CC3)ccc2c1,inactive: 3.11 µM
20,Cc1cc(C)n(-c2c(O)ccc(O)c2-n2nc(C)cc2C)n1,inactive: > 100 µM
21,CC(=O)OCc1ccc(-c2nc(C#N)c(N)o2)o1,inactive: > 10 µM
22,c1cc(CN2CCNCCNCCNCC2)cc(CN2CCNCCNCCNCC2)c1,inactive: > 100 µM
23,CC(Oc1ccccc1Cl)C(=O)NN1C(=O)CSC1c1ccc(Cl)cc1 (configuration not stated),inactive: 19.5 µM

row,SMILES,GI50
1,C=CCOC(=O)c1c(C)[n+]([O-])c2cc(Cl)c(Cl)cc2[n+]1[O-],inactive: 33.8 µM
2,N#CCCSC(=S)C1CCCC1=N (configuration not stated),inactive: > 100 µM
3,CC1(C)OP(=O)(c2ccccc2)C=C1Br (configuration not stated),inactive: > 100 µM
4,Cn1nc(N)nc1N=S(C)(C)=N,inactive: > 100 µM
5,COCn1c(C)c(C)c2c(=O)oc(N(C)C)nc21,inactive: > 100 µM
6,COC(=O)C(NC(=O)OC(C)(C)C)P(=O)(OC)OC (configuration not stated),inactive: > 100 µM
7,CCOC(=O)c1ccc(NC(=O)O/N=C(/Cl)CC)cc1,inactive: 16.6 µM
8,CC(=O)C1=C(C)NC(=C(C#N)C#N)C(C#N)=C1,inactive: > 100 µM
9,Cc1cccc2c(N)c3cccc(C(=O)NCCN(C)C)c3nc12,active: < 0.0377 µM
10,Cc1cc(C)n2c(-c3ccccc3)c(C)cc2n1,inactive: 72.3 µM
11,CCOC(=O)Cc1csc2[n+]1C(=O)/C(=C/c1cccc(OC)c1O)S2,inactive: 89.9 µM
12,COc1ccc2ccc3oc(=O)c(C)cc3c2c1,inactive: > 100 µM
13,O=C(O)C1(Cc2ccccc2)Cc2ccccc2C1,inactive: > 100 µM
14,CCOC(=O)CCC(NC(=O)c1ccc(Nc2nc3cc(C(F)(F)F)ccc3nc2C(=O)OCC)cc1)C(=O)OCC (configuration not stated),inactive: 11.1 µM
15,CCOC(=O)C(C)Sc1nnc(COc2ccc(Cl)cc2)n1-c1ccccc1 (configuration not stated),inactive: 27.7 µM
16,CSc1nc2c(nc(N)n2C2OCC(O)C(O)C2O)c(=O)[nH]1 (configuration not stated),inactive: > 100 µM
17,Cc1cc(O)c(C(c2cccnc2)c2c(O)cc(C)[nH]c2=O)c(=O)[nH]1,inactive: > 100 µM
18,CC(=O)O[C@@H]1[C@@H](C)[C@]2(CC(c3ccoc3)OC2O)C2CCC3O[C@]3(C)[C@]2(C)[C@@H]1OC(C)=O (some centres not stated),inactive: > 100 µM
19,CC(SC(=S)N1CCOCC1)C(=O)Nc1nnc(-c2ccc(Cl)cc2)o1 (configuration not stated),inactive: 48.4 µM
20,CCOC(=O)C1=CC(C)(C(=O)OCC)Nc2c(nc(OC)[nH]c2=O)N1 (configuration not stated),inactive: > 10 µM
21,COc1ccc(N2C(=O)C3c4[nH]c5ccc(OC)cc5c4C4CCC(C(C)C)CC4C3C2=O)cc1 (configuration not stated),inactive: > 100 µM
22,CC1(C)CCCCCCC2CC2CCCCCC(C)(C)C1=O (configuration not stated),inactive: > 100 µM
23,CC1CC2(S(=O)(=O)c3ccccc3)ON1CC2S(=O)(=O)c1ccccc1 (configuration not stated),inactive: > 100 µM

row,SMILES,GI50
1,O=C(Cn1c2ccc(Br)cc2c2nc3ccccc3nc21)NCc1ccccc1,inactive: > 100 µM
2,Cn1c(-c2cccs2)cc(-c2cccs2)c1-c1ccco1,inactive: > 83.4 µM
3,O=c1[nH]c(NCc2ccncc2)nc2[nH]cnc12,inactive: > 100 µM
4,Fc1ccc2nc3n(c2c1)C(c1c(F)cccc1F)SC3 (configuration not stated),inactive: 97.9 µM
5,Cc1nc2ccc(F)cc2c2c1CCS2,inactive: > 100 µM
6,O=C(O)CCC(NC(=O)c1ccc(Nc2nc3cc(C(F)(F)F)ccc3nc2C(=O)O)cc1)C(=O)O (configuration not stated),inactive: > 100 µM
7,CC1CC(C[N+](=O)[O-])CC2(C1)OCCO2 (configuration not stated),inactive: > 100 µM
8,Cc1nc2ccc(NCCN(C)C)c3c(=O)c4cc(O)ccc4n1c23,active: 0.478 µM
9,C=C(Br)C(C)(Cl)CCC(Br)C(C)(C)Cl (configuration not stated),inactive: > 100 µM
10,Cc1nc2c(cc1C(=O)N/N=C/c1ccc([N+](=O)[O-])cc1)c(=O)n(C)c(=O)n2C,inactive: > 100 µM
11,CCCCCNC(=O)c1c(O)[nH]c(=S)[nH]c1=O,inactive: > 100 µM
12,Cc1nn(-c2ccccc2)c(-c2ccccc2[N+](=O)[O-])c1CC#N,inactive: > 100 µM
13,CC(C)(/N=N/C(C)(C)C(=N)N)C(=N)N,inactive: > 100 µM
14,O=C1C=CC2(O[C@@H](Cc3ccccc3)[C@H](Cc3ccccc3)O2)C(SC(=O)c2ccccc2)C1 (some centres not stated),inactive: 10.7 µM
15,CCCCOC(=O)C1CC[C@H]2[C@@H]3CCc4cc(OC(=O)c5cccc6c(=O)c7ccccc7[nH]c56)ccc4[C@H]3CC[C@]12C (some centres not stated),inactive: 10.4 µM
16,CC(=O)NC1CC(C(C)(C)NC(C)=O)CC=C1C (configuration not stated),inactive: > 100 µM
17,O=C1Nc2ccc(Br)cc2/C1=N/c1ccc(Cl)cc1,inactive: 30.8 µM
18,C[C@H]1SC(c2ccc(Cl)cc2Cl)N(NC(=O)c2ccncc2)C1=O (some centres not stated),inactive: > 10 µM
19,COC(=O)C1=C(C)C(=O)[C@H]2C(C(=O)OC)CCCC[C@@H]12 (some centres not stated),inactive: > 100 µM
20,COC(=O)N[C@H](C(=O)NC(OCc1ccccc1)C1COC(C)(C)O1)C(C)O[Si](C)(C)C(C)(C)C (some centres not stated),inactive: 61.1 µM
21,CN1CC(c2ccccc2)N(CCCCN2CC(c3ccccc3)N(C)CC2c2ccccc2)CC1c1ccccc1 (configuration not stated),inactive: > 100 µM
22,COc1ccc(C2Oc3cc(OC)c(O)cc3[C@@H]2C)cc1 (some centres not stated),inactive: 70.5 µM
23,COc1cccc(/C=C2\CCCCCC2=O)c1,inactive: > 100 µM
